According to PubChem BioAssay AID1508624 (National Center for Advancing Translational Sciences (NCATS), 2021):
In all, about 48,000 compounds went through this assay and about 120 (0.25%) were called active. Roughly 4% stayed inconclusive and do not appear here. Calls come from the whole dose curve; as a rule, active = well fitted activation curve with a large enough effect; inconclusive = small, poorly fitted or top-dose-only effect, or another doubt; inactive = no such curve, though single readings can be large or run the other way. The list shows a part of the results.

assay: Primary qHTS for Identification of Small Molecule Activators of Huntingtin-Antisense Promoter Activity; settings: HEK293 HTT-AS promoter firefly luciferase reporter (activity 0% = vehicle and -100% = no light), 24 h; series mostly up to 57.5 µM; activity change, positive = activation: at the top concentration; note: nearly all actives have a fitted effect of over 55% in size
In short: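 HEK293 cells carrying firefly luciferase reporters were seeded at 2,500 per well in Opti-MEM and cultured for 24 h. They were then treated with compounds at up to 57.5 uM final for 24 h at 37 degrees C before Dual-Glo luminescence readout.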

Activity change, positive = activation, inactive:
Cc1ccc(CNC(=O)Cn2c(=O)n(-c3ccc(C)c(F)c3)c(=O)c3sc4ccccc4c32)cc1 -14.8%
Cc1ccc(S(=O)(=O)N(CC(=O)N2CCc3ccccc3C2)c2ccc(C)c(C)c2)cc1 -19.5%
CCOC(=O)c1ccccc1NC(=O)N1CCCN(S(=O)(=O)c2ccc3c(ccn3CC)c2)CC1 -34.8%
Cc1cccc(-c2nc(CCNC(=O)c3ccccc3Br)cs2)c1 -24%
CCOc1ccc(-c2nc3c(C#N)c[nH]n3c2NC2CCCCC2)cc1 -10.5%
CCc1ccc(CNC(=O)C2CCCN(c3nn4cc(-c5ccc(F)cc5)nc4s3)C2)cc1 (configuration not stated) -72.5%
CCOC(=O)C1CCN(C(=O)C2CCN(c3nnc(C)c4c(C)n(-c5ccccc5)nc34)CC2)CC1 -7.88%
CC1(C)CO[C@@H](CC(=O)O)CN1 -5.12%
CCCC(=O)Nc1cc(C(=O)NCc2ccc(OC)cc2)ccc1S(=O)(=O)c1ccc(Cl)cc1 1.22%
Cc1nn(CC(=O)NCc2ccccc2Cl)c(=O)c2cccn12 9.46%
Cc1cc(C)n(-c2nnc(Nc3ccc(C(C)C)cc3)c3ccccc23)n1 -17.1%
NCCNC(=O)c1ccc(Cl)cn1 -5.43%
COc1ccc(CNCc2ccc3c(c2)n(C)c(=O)n3C)cc1 -8.78%
COc1cccc(C(=O)NC(=O)Nc2ccc(-n3nc(C(F)(F)F)cc3C(F)(F)F)cc2)c1 -6.03%
CC(=O)c1ccc(NC(=O)C2=CC(c3cccs3)=NS(=O)(=O)N2C)cc1 -9.2%
Cc1nc2c(c(C)nn2-c2ccccc2)c(C)c1CCC(=O)Nc1ccc(F)cc1 -25.6%
COc1cc(Nc2nc(SCc3cccc(Cl)c3)nc3ccccc23)cc(OC)c1 -25.5%
Fc1ccc(Nc2c3c(nc4nncn24)CCC3)cc1 -14.2%
COc1ccc(NC(=O)C2CCCN(S(=O)(=O)c3ccc(Cl)cc3)C2)cc1 (configuration not stated) -10.3%
Cc1ccc(C)c(N2CCN(c3nccn4nc(-c5ccc(Br)cc5)cc34)CC2)c1 -7.27%
Cc1ccc(Cl)cc1NC(=O)C(NS(=O)(=O)c1cccc2nsnc12)c1ccccc1 (configuration not stated) -12.5%
O=C(COCc1cc(-c2cccs2)on1)NCc1ccccc1Cl -5.44%
COc1cc(C2c3c(oc4ccccc4c3=O)C(=O)N2c2nc(C)c(C)s2)ccc1O (configuration not stated) -16.2%
Cc1nc2nc(NC(=O)c3ccc(F)cc3)[nH]n2c(=O)c1Cc1ccccc1 -6.4%
O=C(NCc1ccccc1F)C1CCN(Cc2cc3ccccc3n2Cc2cccc(Cl)c2)CC1 -20.3%
Cc1c(C(=O)OC2CCCCC2)[nH]c2c1C(=O)CC(c1ccccc1Cl)C2 (configuration not stated) -35.2%
Cn1c(=O)oc2cc(S(=O)(=O)CCC(=O)NCCc3ccccc3)ccc21 10.4%
